The values that follow come from PubChem BioAssay AID1346428 (National Center for Advancing Translational Sciences (NCATS), 2018).

Several values for one entry are separate records, joined by “and”; a condition that tells them apart may be missing. Equal entries are not always repeated. The campaign covered roughly 48,000 compounds. About 1,200 (2.5%) were called active. About 2% were inconclusive and are not listed.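 The calls were made as follows: active = activation of at least 60% and not above a set upper limit (about 1 call in 100 departs from these limits); inconclusive = activation of 40% to 60%, or above that upper limit; inactive = activation under 40%.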 The list shows a part of the results.

For this test, the target named is Probable G-protein coupled receptor 32 (Homo sapiens) (UniProt O75388). In words: qHTS for Agonists of Human Resolvin D1 Receptor DRV1. Also: 0% is about no effect. The conditions noted are these: CHO-K1 GPR32 beta-arrestin PathHunter luminescence, 90 min; at 76.9 µM; hits give high values; zero percent set by DMSO-only wells. The method in brief: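 CHO-K1 cells stably expressing ProLink-tagged GPR32 and Enzyme Activator-tagged beta-arrestin were seeded at 2,500 cells/well overnight, exposed to compounds for 90 min at 37 °C, then read by beta-Gal complementation chemiluminescence after 1 h detection reagent.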
Sequence of UniProt O75388 (O75388 whole entry, looked up): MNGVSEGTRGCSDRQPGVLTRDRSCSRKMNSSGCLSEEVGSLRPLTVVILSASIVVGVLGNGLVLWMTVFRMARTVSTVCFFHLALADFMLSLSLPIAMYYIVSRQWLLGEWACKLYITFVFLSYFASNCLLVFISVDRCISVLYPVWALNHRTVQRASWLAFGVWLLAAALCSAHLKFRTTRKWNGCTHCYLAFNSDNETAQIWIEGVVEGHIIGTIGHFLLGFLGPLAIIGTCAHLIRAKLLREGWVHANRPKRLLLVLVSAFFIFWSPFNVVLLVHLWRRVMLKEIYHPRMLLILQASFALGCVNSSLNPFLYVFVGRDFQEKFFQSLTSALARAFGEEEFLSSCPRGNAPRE
On to `O=c1cc(CN2CCN(S(=O)(=O)c3ccc(Cl)cc3)CC2)nc2sc(-c3ccccc3F)nn12`, for which the activation is inactive: -9.97%. The same measure for `O=S(=O)(NCCc1ccccc1)c1ccc(N2CCCCS2(=O)=O)cc1`: inactive: 3.66%; for `O=C(CSc1nc(-c2ccc(Cl)cc2)nc2c1Cc1ccccc1O2)N1CCCCC1`: inactive: 6.47%. The same measure for `Cc1ccc(N2C(=O)CS(=O)(=O)C23C(=O)N(Cc2cccc(F)c2)c2ccccc23)cc1Cl` (stereo not drawn): inactive: 0.63%; for `CO/N=C(\C(=O)N[C@@H]1C(=O)N2C(C(=O)O)=C(CSc3nc(=O)c(O)nn3C)CS[C@H]12)c1csc(N)n1`: inactive: 43.9%; for `Cc1cccc(NC(=O)c2sc3nc4n(c(=O)c3c2C)N=C(c2ccc(F)cc2)CS4)c1C`: inactive: -9.91%. Consider `Cc1ccc(C)c(N2CCN(c3nc4ccccc4c4nc(CCn5nc(C)cc5C)nn34)CC2)c1`, for which the activation was inactive: 27.3%. Take `COc1ccc(C(=O)O)cc1Nc1nc2ccc(C)cc2n2cnnc12`: the activation was inactive: -9.75%.

With `NC(=O)CC[C@@H](N)C(=O)O`, the activation is inactive: -3.87%. With `COc1ccc(Cl)cc1NC(=O)c1cc2nc(-c3ccc4c(c3)OCO4)cc(C(F)(F)F)n2n1`, the activation was inactive: -13.7%. The value for `COC(=O)Cn1c(=O)c2c(nc3n2CCN3c2cccc(C)c2)n(C)c1=O` was inactive: 1.15%; that for `CCCCc1ccc(NC(=O)c2cc3c(=O)n4ccccc4nc3n2C)cc1` was inactive: 8.89%; that for `COc1ccc(NC(=O)CCCc2nc(-c3ccco3)no2)c(OC)c1` was inactive: -18.7%.

`COc1ccc2nc3sc(C(=O)Nc4ccccc4F)cc3cc2c1`: the activation is inactive: 42.8%.

As to `CCN(CC)S(=O)(=O)c1ccc(NC(=O)[C@H](CSCc2ccccc2)N2Cc3ccccc3C2=O)cc1`, the activation was inactive: -17.8%. Consider `Cc1ccc(CN2C(=O)c3ccccc3C2C(=O)NC2CCCCCC2)cc1` (stereo not drawn), for which the activation is inactive: 8.33%. As to `Cc1ccc(NC(=O)c2sc3ccccc3c2Cl)cc1`, the activation is inactive: 17.6%. The same measure for `CCOc1ccccc1NC(=O)c1c(C)cc(C)nc1SCC(=O)c1cccc(OC)c1`: inactive: -24.6%; for `Cc1cc(Nc2cccc(C(F)(F)F)c2)nc2ccc(NC(=O)c3ccc(N(C)C)cc3)cc12`: inactive: -5.2%; for `Cc1cc(O)c(C(c2ccc(F)cc2)N2CCCCC2)c(=O)n1Cc1ccco1` (stereo not drawn): inactive: -13.4%.

As for `CCc1ccc(-n2nc(C)c3c(C(=O)Nc4cccc(C(F)(F)F)c4)cc(C)nc32)cc1`, the activation is inactive: 12.9%. Consider `O=C(Nc1cccc(C(=O)N2CCCCC2)c1)c1nsc2ccccc12`, for which the activation is inactive: 5.44%. Take `COc1ccc(CNC(=O)CCn2nc(C)c3c(C)n(-c4ccccc4)nc3c2=O)cc1OC`: the activation was inactive: -8.79%. Regarding `Cc1ccc(NC(=O)CCCn2nc(C)c3c(C)n(-c4ccccc4)nc3c2=O)cc1Cl`, the activation was inactive: -6.88%.

In the case of `O=C(CN1CCN(c2ccc(Cl)cc2)CC1)Nc1ccc(F)cc1F`, the activation was inactive: -19.8%. For the compound `Cc1cccn2c(=O)c(/C=C(\C#N)c3nc4ccccc4n3C)c(Oc3ccc(Br)cc3)nc12`, the activation is inactive: -13.3%.

Regarding `CN1C(=O)c2ccccc2Sc2ccc(NC(=O)Nc3ccccc3F)cc21`, the activation is inactive: -12.7%. For the compound `CCOc1ccc(N(CC(=O)Nc2ccc(F)cc2F)S(=O)(=O)c2c(C)[nH]c(=O)[nH]c2=O)cc1`, the activation was inactive: -5.7%. For the compound `COc1ccc(CN(CCC(c2ccc3c(c2)OCO3)c2ccccc2OC)C(C)=O)cc1` (stereo not drawn), the activation is inactive: -26%. On to `CCOCCCn1c(=N)c(S(=O)(=O)c2ccc(C)cc2)cc2c(=O)n3cccc(C)c3nc21`, for which the activation was inactive: 19.7%. `COc1ccc(CNC(=O)C(=O)NCC(c2cccs2)S(=O)(=O)c2ccc(F)cc2)cc1` (stereo not drawn): the activation was inactive: -0.617%. The same measure for `CC(=O)N1CCCc2cc(S(=O)(=O)N(C)CC(=O)Nc3ccc(F)cc3Cl)ccc21`: inactive: 8.34%; for `CCCCOC(=O)NS(=O)(=O)c1sc(CC(C)C)cc1-c1ccc(Cn2c(CC)nc3c(C)cc(C)nc32)cc1`: inactive: -25.1%; for `CCc1nn(CC(=O)NC(C)C)c(=O)c2cc3cc(F)ccc3n12`: inactive: -10.8%.

On to `CCOC(=O)c1ccc(OCC2c3cc(OC)c(OC)cc3CCN2C(=O)Cc2ccc(F)cc2)cc1` (stereo not drawn), for which the activation is inactive: -3.68%. For the compound `O=C(NCC(c1ccc2c(c1)OCO2)N1CCN(c2ccccc2)CC1)c1ccccc1F` (stereo not drawn), the activation is inactive: -19.7%. With `Cc1ccc(NC(=O)c2c(Nc3ccccc3C)sc(C(=O)c3ccccc3)c2N)cc1`, the activation is inactive: -78.2%.

Regarding `Cc1ccc(NC(=O)Cn2c(=O)n(Cc3ccccc3)c(=O)c3c(C)c(C)sc32)c(C)c1`, the activation was inactive: 21.3%.

Take `CC1CCCN(c2csc3ccc(F)cc3c2=O)C1` (stereo not drawn): the activation was inactive: 3.42%. The value for `COc1ccc(OC(=O)c2nc(SCc3ccc(C)cc3)ncc2Cl)cc1` was inactive: -21%. `CCOC(=O)c1ccc(-n2c(N)c(C(=O)OC)c3nc4ccccc4nc32)cc1`: the activation is inactive: -21.3%.

In the case of `CCc1ccccc1NC(=O)C1=CC(c2ccc(OC)c(OC)c2)=NS(=O)(=O)N1C`, the activation is inactive: -1.75%. Take `Cc1cccc(C)c1OCC(=O)NCC1(N2CCOCC2)CCCCC1`: the activation is inactive: -33.6%.

Take `Cc1ccc(-c2nc(C)c(CCNC(=O)C(=O)Nc3ccc4c(c3)OCCO4)s2)cc1`: the activation was inactive: 27.4%. Turning to `CCCOc1ccc(C(=O)Nc2cccc(-c3nc4ccccc4[nH]3)c2)cc1`, the activation was active: 82.5%.

`O=C(CN1C(=O)COc2ccc(S(=O)(=O)N3CCCCC3)cc21)NCc1ccc(F)cc1`: the activation is inactive: -13.5%. Consider `CCc1ccc(-c2nn(CC(=O)NC3CCCC3)c3c2cnc2ccc(C)cc23)cc1`, for which the activation was inactive: 37%.

Consider `CC1(C)O[C@H]2[C@@H](O1)[C@@H](C(=O)Nc1ccccc1O)O[C@@H]1OC(C)(C)O[C@@H]12`, for which the activation was inactive: -21.9%. In the case of `O=C(Nc1ccc(N2CCC(N3CCCCC3)CC2)c(C(=O)O)c1)c1ccc(Br)cc1`, the activation is inactive: 3.3%. The same measure for `CCOc1cc(C2C(C(=O)OC)=C(C)NC3=C2C(=O)c2ccccc23)ccc1O` (stereo not drawn): inactive: -62.3%; for `COc1ccc(-n2nc3ccc(NC(=O)c4cc5ccccc5o4)cc3n2)cc1Cl`: inactive: -19.7%.

As for `CCOc1ccc(CNC(=O)C2CCCN(c3nc4c(C)cc(C)cc4s3)C2)cc1` (stereo not drawn), the activation was inactive: 1.27%. On to `COc1ccccc1-c1nc(S(=O)(=O)c2ccc(Cl)cc2)c(N2CCCCCC2)o1`, for which the activation was inactive: -9.55%. Turning to `CCC(CC)C(=O)Nc1cccc(-c2nc3cccnc3s2)c1C`, the activation is inactive: -14.6%.

As for `FC(F)(F)c1ccccc1-n1ccnc1`, the activation is inactive: -8.4% and inactive: -8.61%.

Regarding `Cc1cccc(/C=C/c2onc(C)c2S(=O)(=O)N2CCC(C(=O)N3CCC(C)CC3)CC2)c1`, the activation is inactive: -11.3%. The same measure for `Cc1ccc(C(C)C)c(OCC(=O)Nc2c(C(=O)c3ccccc3)oc3ccccc23)c1`: inactive: -0.841%. Take `CCCCOc1c(Cl)cc(C(=O)N(Cc2ccc(C)o2)C2CCS(=O)(=O)C2)cc1Cl` (stereo not drawn): the activation was inactive: 49.2%.

As to `COc1ccc(S(=O)(=O)N2CCC(c3ccncc3)CC2)cc1Cl`, the activation was inactive: 41.4%. Regarding `CN(C(=O)c1cc(-c2ccccc2O)on1)c1ccccc1`, the activation is inactive: 3.47%.

As to `CSc1ccc(CCNc2ncnc3onc(C)c23)cc1`, the activation was inactive: 32.6%.

As to `Cc1cc(C)c2oc(C(=O)N(Cc3ccc(F)cc3)C3CCS(=O)(=O)C3)cc(=O)c2c1` (stereo not drawn), the activation is inactive: -15.4%.

Take `CCOc1ccc(/C=C(\C#N)c2nc(-c3cc4ccccc4oc3=O)cs2)c(OCC)c1`: the activation is inactive: -3.12%.

As for `CCN1CCN(C(c2ccc(OC)cc2)c2c(O)cc(C)n(CCOC)c2=O)CC1` (stereo not drawn), the activation was inactive: -15.1%.

`CCOC(=O)c1c(C)oc2ccc(N(C(=O)Oc3ccccc3)S(=O)(=O)c3ccccc3)cc12`: the activation is inactive: -2.81%.

For the compound `CN(C(=O)Cn1c(=O)n(CCCS(=O)(=O)C2CCCCC2)c(=O)c2ccccc21)c1ccccc1`, the activation is inactive: -22.4%. For the compound `COc1ccccc1NC(=O)c1c(NCc2sccc2C)sc2c1CCCCC2`, the activation was inactive: -10.1%. For the compound `COc1ccc(C(CNC(=O)COc2ccc(C)cc2)N2CCCCC2)cc1` (stereo not drawn), the activation was inactive: 1.91%. On to `COc1ccc2c(CNCc3ccc(C)o3)c(C(=O)O)n(Cc3ccccc3)c2c1`, for which the activation was inactive: 13.2%.

On to `O=C(Cn1c(=O)oc2ccccc21)NCc1cccc(Cl)c1`, for which the activation is inactive: -3.91%. The value for `COc1ccc(C2C=C(c3ccccc3)Nc3nc(NC(=O)c4ccc(C)cc4)nn32)cc1` (stereo not drawn) was inactive: 0.122%; that for `Cc1cc(C)cc(N(CC(=O)Nc2cccc(C)c2C)S(=O)(=O)c2c(C)[nH]c(=O)[nH]c2=O)c1` was inactive: -1.16%; that for `Cc1cccc(CCNC(=O)c2cc3ccccn3n2)c1` was active: 101%. Turning to `COc1ccc(Cl)cc1NC(=O)Cn1c2ncccc2c(=O)n1-c1ccc(C)c(C)c1`, the activation was inactive: -4.65%. The value for `CCOc1cc(-c2nc(-c3ccc(-c4ccc(C)cc4)nc3OC)no2)cc(OCC)c1OCC` was inactive: 3.75%. `COC(=O)c1ccc(Cl)cc1NC(=O)N1CC(C)Oc2ccccc21` (stereo not drawn): the activation was inactive: -34.6%. As to `Cc1ccc(-n2nc3c(=O)n(CC(=O)Nc4ccccc4F)nc(C)c3c2C)c(C)c1`, the activation was inactive: -13.3%. With `Cc1cc(NS(=O)(=O)c2ccc(NC(=O)COc3ccc(Cl)cc3)cc2)nc(C)n1`, the activation is inactive: 9.65%.

For `Cc1ccc(NC(=O)Nc2nnc(N(C)Cc3ccccc3)s2)cc1`, the activation was inactive: -10.8%. Take `CCOC(=O)c1noc2ncnc(N(CCC(=O)OC)c3ccccc3)c12`: the activation is inactive: 8.23%.

Turning to `CCOC(=O)c1noc2ncnc(Nc3ccc(C)c(F)c3)c12`, the activation was inactive: 1.99%. The value for `CN1CCN(CCCNC(=O)Cn2c(-c3cccs3)cc3ccccc32)CC1` was inactive: 14%; that for `Cc1ccc2c(c1)sc1nc(=O)n(-c3ccc(Cl)cc3)c(=O)n12` was inactive: 16.8%.
